Test results taken from US20190083615A1.
Where a chain is given by its changes, count along the chain named. Blank lines part the entries; values can stand above or below the binder they belong to.

Columns and labels:
[1] = biological target: T1, cynomolgous monkey LAG3 expressed on cells (cynomolgous monkey); assay: cell based KinExA, BaF/3 cells transfected with cynomolgus LAG3 (n=2)
[2] = biological target: T1, cynomolgous monkey LAG3 expressed on …; assay: flow cytometry, PHA-activated cynomolgus CD4+ T cells (3 donors)
[3] = biological target: T1, cynomolgous monkey LAG3 expressed on …; assay: cell based KinExA, BaF/3 cells transfected with cynomolgus LAG3 (n=3)
[4] = biological target: T1, cynomolgous monkey LAG3 expressed on …; assay: flow cytometry, PHA-activated cynomolgus CD8+ T cells (3 donors)

Kd [1]: 0.025 nM
B1: Ab5: humanized light chain 45AGX Humanized x[LAG3_H] mAb (LB145.22D2.E1.D1 (VL3)) Kappa (PX) and humanized heavy chain 57AHH Humanized x[LAG3_H] mAb … (antibody)
heavy: QMQLVQSGPEVKKPGTSVKVSCKASGYTFTDYNVDWVRQARGQRLEWIGDINPNNGGTIYAQKFQERVTITVDKSTSTAYMELSSLRSEDTAVYYCARNYRWFGAMDHWGQGTTVTVSSASTKGPSVFPLAPCSRSTSESTAALGCLVKDYFPEPVTVSWNSGALTSGVHTFPAVLQSSGLYSLSSVVTVPSSSLGTKTYTCNVDHKPSNTKVDKRV[human IgG4 Fc with S228P (EU numbers) not spelt out]
light: DIVMTQTPLSLSVTPGQPASISCKASQSLDYEGDSDMNWYLQKPGQPPQLLIYGASNLESGVPDRFSGSGSGTDFTLKISRVEAEDVGVYYCQQSTEDPRTFGGGTKVEIKRTVAAPSVFIFPPSDEQLKSGTASVVCLLNNFYPREAKVQWKVDNALQSGNSQESVTEQDSKDSTYSLSSTLTLSKADYEKHKVYACEVTHQGLSSPVTKSFNRGEC

EC50 [2]: 0.03 nM | Kd [3]: 0.012 nM | EC50 [4]: 0.03 nM
B2: Ab6: humanized light chain 45AGX Humanized x[LAG3_H] mAb (LB145.22D2.E1.D1 (VL3)) Kappa (PX) and humanized heavy chain 73AHD Humanized x[LAG3_H] mAb … (antibody)
heavy: B1 heavy with N55D
light: B1 light

EC50 [2]: 0.027 nM | Kd [1]: 0.016 nM | EC50 [4]: 0.031 nM
B3: Ab8: humanized light chain 45AGX Humanized x[LAG3_H] mAb (LB145.22D2.E1.D1 (VL3)) Kappa (PX) and humanized heavy chain 80AHG Humanized x[LAG3_H] mAb … (antibody)
heavy: B1 heavy with N55Q
light: B1 light

EC50 [2]: 0.035 nM | Kd [1]: 0.011 nM | EC50 [4]: 0.041 nM
B4: Ab7: humanized light chain 45AGX Humanized x[LAG3_H] mAb (LB145.22D2.E1.D1 (VL3)) Kappa (PX) and humanized heavy chain 21AHG Humanized x[LAG3_H] mAb … (antibody)
heavy: B1 heavy with N55S
light: B1 light
